Measurements as given in the supplement of paper PMC11060735.
Values joined by “and” are separate entries in the source; they are usually repeats but may differ in a detail not shown here. Identical values can stand only once. Counter-ions that a name gives are not always drawn. Hit rate of the full screen: of about 1,800 compounds, about 50 (3%) showed activity. The list shows a part of the results.

The compounds below were run on mouse p16Ink4a+/- lung fibroblasts (INKBRITE, bleomycin-injured) (assay: percentage of GFP+ (p16Ink4a+) fibroblasts among all cells in well; higher = less depletion of p16Ink4a+ cells, active = 20 or less). Settings: 1 µM; 3 days.
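Note: fibroblasts sorted 14 days after bleomycin, GFP+ and GFP− mixed 1:1 in 384-well plates (GFP− as in-well control), imaged after Hoechst and NucView530 staining, reference wells lacked compound.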

SMILES | percentage of GFP+
COc1c2occc2cc2ccc(=O)oc12 [Methoxsalen] | inactive: 50.4%
N#CC[C@@H](C1CCCC1)n1cc(-c2ncnc3[nH]ccc23)cn1 [S-Ruxolitinib] | inactive: 47.4%
Cc1ccc(S(=O)(=O)c2ccc([N+](=O)[O-])o2)cc1 | inactive: 26.1%
CN1CCc2nc(C(=O)N[C@@H]3C[C@@H](C(=O)N(C)C)CC[C@@H]3NC(=O)C(=O)Nc3ccc(Cl)cn3)sc2C1 [Edoxaban] | inactive: 45.7%
CO[C@H]1C(=O)[C@]2(C)[C@@H](OC)C[C@H]3OC[C@@]3(OC(C)=O)[C@H]2[C@H](OC(=O)c2ccccc2)[C@]2(O)C[C@H](OC(=O)[C@H](O)[C@@H](NC(=O)OC(C)(C)C)c3ccccc3)C(C)=C1C2(C)C [Cabazitaxel] | inactive: 37.8%
CCO/C(O)=C1\C(C)=NC(C)=C(C(=O)OC)C1c1cccc([N+](=O)[O-])c1 (configuration not stated) [Nitrendipine] | inactive: 39.9%
O=C(O)CC[C@H]1CC[C@@](c2cc(F)ccc2F)(S(=O)(=O)c2ccc(Cl)cc2)CC1 | inactive: 47.5%
O=C(O)[C@H](Cc1c[nH]c2ccccc12)N1C(=O)c2ccccc2C1=O | inactive: 38.7%
CN1CCN(C2=Nc3ccccc3Oc3ccc(Cl)cc32)CC1 [Loxapine] | inactive: 51.2%
COc1ccc(Cn2ccc3ccc(C(=O)NO)cc32)cc1 | inactive: 47.2%
COc1cc(Nc2ncc3c(n2)-c2ccc(Cl)cc2C(c2c(F)cccc2OC)=NC3)ccc1C(=O)O [Alisertib] | inactive: 35.8%
NC(=S)N/N=C/c1ncccc1N [Triapine] | active: 17.4%
COc1cc(C)c(/C=C/C(C)=C/C=C/C(C)=C/C(=O)O)c(C)c1C [Acitretin] | inactive: 33.2%
CCCCCCCCCCCCc1ccc(S(=O)(=O)Nc2nncs2)cc1 | inactive: 45.7%
CC(=O)Nc1ccccc1 [Acetanilide] | inactive: 40.8%
CN1CCC[C@@H]1CCO[C@](C)(c1ccccc1)c1ccc(Cl)cc1 [Clemastine, Clemastine Fumarate] | inactive: 44.8%
COc1ccc(CN2CCN(C(c3ccc(F)cc3)c3ccc(F)cc3)CC2)c(OC)c1OC [Lomerizine, Lomerizine Dihydrochloride] | inactive: 56.3%
COc1c(C)c(C(=O)c2ccc(N)c(C(=O)O)c2)n2ccccc12 | inactive: 39%
CN/C(=C\[N+](=O)[O-])NCCSCc1ccc(CN(C)C)o1 [Ranitidine] | inactive: 29.8%
O=C(CCc1ccc(O)cc1)c1c(O)cc(O)cc1O[C@@H]1O[C@H](CO)[C@@H](O)[C@H](O)[C@H]1O [Phloridzin] | inactive: 36.4%
Cc1c(Cc2ccc3ccccc3n2)c2cc(F)ccc2n1CC(=O)O | inactive: 45.5%
COc1cccc2cc(-c3nc([C@H]4CC[C@H](C(=O)O)CC4)n4ncnc(N)c34)[nH]c12 | inactive: 29.7%
CC(C)(C)n1nc(-c2ccc(Cl)cc2)c2c(N)ncnc21 | inactive: 42.6%
CCOC(=O)c1ccc(C#Cc2ccc3c(c2)C(C)(C)CCS3)nc1 [Tazarotene] | inactive: 41.8%

SMILES | percentage of GFP+
C[C@H]1[C@H](NC(=O)/C(=N\OC(C)(C)C(=O)O)c2csc(N)n2)C(=O)N1S(=O)(=O)O [Aztreonam] | inactive: 43.8%
COc1cc(N2CCC(N(C)C)CC2)ccc1Nc1ncc(Cl)c(Nc2ccccc2P(C)(C)=O)n1 | inactive: 39.9%
Cn1cc(-c2ccc3nnc(Sc4ccc5ncccc5c4)n3n2)cn1 | inactive: 45.6%
O=C(Nc1ccccc1)c1cc([N+](=O)[O-])ccc1Cl [2-chloro-5-nitro-N-phenylbenzamide] | inactive: 32.7%
O=C(/C=C/c1ccc(O)c(O)c1)OCCc1ccccc1 [Caffeic Acid Phenethyl Ester] | inactive: 37.6%
CN(C)Cc1ccc(-c2nc3cccc4c3n2CCNC4=O)cc1 | inactive: 49.4%
O=C1Cc2c([nH]c3ccc(Br)cc23)-c2ncccc2N1 [1-Azakenpaullone] | inactive: 47.8%
Cc1ccccc1-n1c(Cn2nc(-c3cccc(O)c3)c3c(N)ncnc32)nc2cccc(C)c2c1=O | inactive: 34.5%
C#CCN[C@@H]1CCc2ccccc21 [Rasagiline] | inactive: 43.2%
CC1=C(CC(=O)O)c2cc(F)ccc2/C1=C\c1ccc(S(C)=O)cc1 (configuration not stated) [Sulindac] | inactive: 41.6%
CC(C)[C@@H](C)/C=C/[C@@H](C)[C@@H]1CC[C@H]2C3=CC=C4C[C@@H](O)CC[C@]4(C)[C@@H]3CC[C@@]21C [Ergosterol] | inactive: 48.5%
CC1(C)O[C@@H]2C[C@H]3[C@@H]4CCC5=CC(=O)CC[C@]5(C)[C@@]4(F)[C@@H](O)C[C@]3(C)[C@]2(C(=O)CCl)O1 [Halcinonide] | inactive: 42.1%
CC1(C)CCC[C@]2(C)[C@H]3CC(=O)O[C@]3(C)CC[C@@H]12 [Sclareolide] | inactive: 45.5%
C=CC(=O)N1CCCC(n2nc(-c3ccc(Oc4ccccc4)cc3)c3c(N)ncnc32)C1 (configuration not stated) [Ibrutinib] | inactive: 34.1%
CS(=O)(=O)c1cccc(CNc2nc(Nc3ccc4c(c3)CCC(=O)N4)ncc2C(F)(F)F)c1 | inactive: 36%
COc1ccc(C(=O)Nc2sc3c(c2C(N)=O)CCCC3)cc1OC | inactive: 42.9%
C=C1CC[C@H](O)C/C1=C/C=C1\CCC[C@]2(C)[C@@H]([C@H](C)CCCC(C)(C)O)CC[C@@H]12 [Calcidiol] | inactive: 28.3%
Cc1c(N(C)C)c(=O)n(-c2ccccc2)n1C [Aminophenazone] | inactive: 47.3%
Clc1ccc(Nc2nnc(Cc3ccncc3)c3ccccc23)cc1 [Vatalanib] | inactive: 43.4%
CCOC(=O)Nc1cc(-c2ccc(C)c(NS(C)(=O)=O)c2)nn2c(C)nnc12 [Bromosporine] | inactive: 35.6%
CNC(=O)Nc1ccc(-c2nc(N3CC4CCC(C3)O4)c3cnn(C4CCC5(CC4)OCCO5)c3n2)cc1 | inactive: 39.2%
Nc1nc(Cl)nc2c1ncn2[C@@H]1O[C@H](CO)[C@@H](O)[C@@H]1F [Clofarabine] | inactive: 35.5%
CCn1cc(C(=O)O)c(=O)c2cc(F)c(N3CCN(C)CC3)cc21 [Pefloxacin] | inactive: 45.7%
CC(C)[C@H](C(=O)Nc1ccc(C(=O)NO)cc1)c1ccccc1 | active: 9.62%

SMILES | percentage of GFP+
O=C1NC(=O)C(c2ccccc2[N+](=O)[O-])=C1Nc1ccc(O)c(Cl)c1 | inactive: 46.9%
CCN(CCCc1ccccc1)CCCc1ccccc1 [Alverine] | inactive: 50.1%
CCCC(CCC)C(=O)O [Valproic Acid] | inactive: 43.5% and inactive: 41.1%
CCCN(CCC)CCc1cccc2c1CC(=O)N2 [Ropinirole] | inactive: 49.1%
CCCNCC(O)COc1ccccc1C(=O)CCc1ccccc1 (configuration not stated) [Propafenone] | inactive: 39%
CNC(=O)c1ccccc1Sc1ccc2c(/C=C/c3ccccn3)[nH]nc2c1 [Axitinib] | inactive: 21.7%
C=CC/N=C1\C(=O)C=C2NC(=O)/C(C)=C/C=C\[C@H](OC)[C@@H](OC(N)=O)/C(C)=C/[C@H](C)[C@@H](O)[C@@H](OC)C[C@H](C)CC1=C2O [Tanespimycin] | active: 11.8%
CC(C)c1ccc(NC(=O)Cn2cnc3c2c(=O)n(C)c(=O)n3C)cc1 | inactive: 49.2%
CCCc1nc2c(C)cc(-c3nc4ccccc4n3C)cc2n1Cc1ccc(-c2ccccc2C(=O)O)cc1 [Telmisartan] | inactive: 44.7%
Clc1ccc(C(c2ccccc2Cl)C(Cl)Cl)cc1 (configuration not stated) [Mitotane] | inactive: 40.8%
C=C1C(n2cnc3c(O)nc(N)nc32)C[C@H](O)[C@H]1CO (some centres not stated) [Entecavir Hydrate] | inactive: 35.2%
O=C(Nc1ccc(S(=O)(=O)Nc2ccccc2Cl)c(Cl)c1)c1ccccn1 | inactive: 42.8%
CCc1c2c(nc3ccc(O)cc13)-c1cc3c(c(=O)n1C2)COC(=O)[C@]3(O)CC | inactive: 31.4%
CC(C)N(CC[C@H](c1ccccc1)c1cc(CO)ccc1O)C(C)C [5-hydroxymethyl Tolterodine] | inactive: 46.7%
CN(C)CCC[C@@]1(c2ccc(F)cc2)OCc2cc(C#N)ccc21 [Citalopram] | inactive: 51.1%
Nc1ccccc1NC(=O)c1ccc(CNC(=O)OCc2cccnc2)cc1 [Entinostat] | inactive: 32%
CNCc1cc(-c2ccccc2F)n(S(=O)(=O)c2cccnc2)c1 | inactive: 46.6%
Cn1c(=O)cc(N2CCC[C@@H](N)C2)n(Cc2ccccc2C#N)c1=O [Alogliptin] | inactive: 46.3%
Cc1nc(-c2ccc(OCC(C)C)c(C#N)c2)sc1C(=O)O [Febuxostat] | inactive: 42.1%
Cc1cccc(-c2nn3c(c2-c2ccnc4ccc(C(N)=O)cc24)CCC3)n1 | inactive: 40.8%
N#C/C(=C1/SC[C@@H](c2ccc(Cl)cc2Cl)S1)n1ccnc1 [Luliconazole] | inactive: 40.5%
C[C@@H]1C(=O)O[C@H]2CC34[C@H]5C[C@@H](C(C)(C)C)C36[C@@H](OC(=O)[C@@H]6O)O[C@@]4(C(=O)O5)[C@]21O (some centres not stated) [Ginkgolide A] | inactive: 43.5%
CCCS(=O)(=O)Nc1ccc(F)c(C(=O)c2c[nH]c3ncc(Cl)cc23)c1F | inactive: 44.4%
COc1ccc(-c2ccc3cc(C(=O)O)ccc3c2)cc1C12CC3CC(CC(C3)C1)C2 [Adapalene] | inactive: 39.3%
